{"source": "the supplement of paper PMC4967469", "note": "By IC50 is meant the dose at which the fit gives 50% viability; fits outside the tested doses are given as limits. For AUC the same curve is integrated over the 256-fold range of doses and scaled to a fraction; the more sensitive the line, the further below 1. The top dose, if marked as inferred, was calculated from the reported fits.", "data": [{"compound": "CCn1cc(-c2ccnc3[nH]c(-c4cccc(CN(C)C)c4)cc23)c(-c2ccc(NC(=O)N(C)C)cc2)n1 [GSK1070916]", "experiment": "Viability of human cancer cell lines after 72 h of drug (GDSC screen)", "settings": "top dose inferred", "protocol": "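Human cancer cell lines in 384-well plates, medium with 10% serum, drug for 72 h over a 256-fold dose range (nine 2-fold or five 4-fold steps up to the top dose). Adherent lines were fixed and stained with the nucleic acid dye Syto60, suspension lines read with resazurin; signal relative to control wells, capped at 0 and 100%. One two-parameter sigmoid per drug and line, fitted in a mixed model over all curves with the slope shared within a line.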", "units": {"IC50": "nM"}, "values": [{"cell line": "IHH-4 (thyroid, semi-adherent, top dose 2.56 µM)", "AUC": 0.96, "IC50": "> 2560"}, {"cell line": "IM-95 (stomach, adherent, top dose 2.56 µM)", "AUC": 0.876, "IC50": "> 2560"}, {"cell line": "IMR-5 (neuroblastoma, adherent, top dose 2.56 µM)", "AUC": 0.092, "IC50": "< 10"}, {"cell line": "IPC-298 (melanoma, adherent, top dose 2.56 µM)", "AUC": 0.972, "IC50": "> 2560"}, {"cell line": "IST-MEL1 (melanoma, adherent, top dose 2.56 µM)", "AUC": 0.953, "IC50": "> 2560"}, {"cell line": "IST-MES1 (mesothelioma, adherent, top dose 2.56 µM)", "AUC": 0.974, "IC50": "> 2560"}, {"cell line": "IST-SL1 (small cell lung carcinoma, semi-adherent, top dose 2.56 µM)", "AUC": 0.172, "IC50": 15.5}, {"cell line": "IST-SL2 (small cell lung carcinoma, suspension, top dose 2.56 µM)", "AUC": 0.413, "IC50": 92.7}, {"cell line": "J82 (bladder, adherent, top dose 2.56 µM)", "AUC": 0.981, "IC50": "> 2560"}, {"cell line": "JAR (urogenital system, adherent, top dose 2.56 µM)", "AUC": 0.918, "IC50": "> 2560"}, {"cell line": "JEG-3 (urogenital system, adherent, top dose 2.56 µM)", "AUC": 0.991, "IC50": "> 2560"}, {"cell line": "JHH-1 (liver, adherent, top dose 2.56 µM)", "AUC": 0.981, "IC50": "> 2560"}, {"cell line": "JHH-2 (liver, adherent, top dose 2.56 µM)", "AUC": 0.96, "IC50": "> 2560"}, {"cell line": "JHH-4 (liver, adherent, top dose 2.56 µM)", "AUC": 0.975, "IC50": "> 2560"}, {"cell line": "JHH-6 (liver, adherent, top dose 2.56 µM)", "AUC": 0.982, "IC50": "> 2560"}, {"cell line": "JHH-7 (liver, adherent, top dose 2.56 µM)", "AUC": 0.978, "IC50": "> 2560"}, {"cell line": "JHOS-2 (ovary, adherent, top dose 2.56 µM)", "AUC": 0.981, "IC50": "> 2560"}, {"cell line": "JHOS-3 (ovary, adherent, top dose 2.56 µM)", "AUC": 0.957, "IC50": "> 2560"}, {"cell line": "JHU-022 (head and neck, adherent, top dose 2.56 µM)", "AUC": 0.922, "IC50": "> 2560"}, {"cell line": "JIMT-1 (breast, adherent, top dose 2.56 µM)", "AUC": 0.964, "IC50": "> 2560"}, {"cell line": "JJN-3 (haematopoietic neoplasm, suspension, top dose 2.56 µM)", "AUC": 0.883, "IC50": 1890}, {"cell line": "JM1 (B-cell lymphoma, suspension, top dose 2.56 µM)", "AUC": 0.25, "IC50": 34.8}, {"cell line": "JURL-MK1 (chronic myeloid leukaemia, suspension, top dose 2.56 µM)", "AUC": 0.819, "IC50": 1450}, {"cell line": "JVM-2 (lymphoid neoplasm, suspension, top dose 2.56 µM)", "AUC": 0.908, "IC50": "> 2560"}, {"cell line": "JVM-3 (lymphoid neoplasm, suspension, top dose 2.56 µM)", "AUC": 0.987, "IC50": "> 2560"}, {"cell line": "JiyoyeP-2003 (Burkitt lymphoma, suspension, top dose 2.56 µM)", "AUC": 0.989, "IC50": "> 2560"}, {"cell line": "K2 (melanoma, adherent, top dose 2.56 µM)", "AUC": 0.973, "IC50": "> 2560"}, {"cell line": "K5 (thyroid, adherent, top dose 2.56 µM)", "AUC": 0.976, "IC50": "> 2560"}, {"cell line": "KALS-1 (glioma, adherent, top dose 2.56 µM)", "AUC": 0.92, "IC50": "> 2560"}, {"cell line": "KARPAS-45 (lymphoblastic leukaemia, suspension, top dose 2.56 µM)", "AUC": 0.079, "IC50": "< 10"}, {"cell line": "KARPAS-299 (anaplastic large cell lymphoma, suspension, top dose 2.56 µM)", "AUC": 0.988, "IC50": "> 2560"}, {"cell line": "KARPAS-422 (B-cell lymphoma, suspension, top dose 2.56 µM)", "AUC": 0.924, "IC50": "> 2560"}, {"cell line": "KARPAS-620 (haematopoietic neoplasm, suspension, top dose 2.56 µM)", "AUC": 0.46, "IC50": 127}, {"cell line": "KASUMI-1 (acute myeloid leukaemia, suspension, top dose 2.56 µM)", "AUC": 0.216, "IC50": 23.4}, {"cell line": "KCL-22 (chronic myeloid leukaemia, suspension, top dose 2.56 µM)", "AUC": 0.881, "IC50": 1940}, {"cell line": "KE-37 (lymphoblastic leukaemia, suspension, top dose 2.56 µM)", "AUC": 0.028, "IC50": "< 10"}, {"cell line": "KELLY (neuroblastoma, adherent, top dose 2.56 µM)", "AUC": 0.962, "IC50": "> 2560"}, {"cell line": "KG-1 (acute myeloid leukaemia, suspension, top dose 2.56 µM)", "AUC": 0.846, "IC50": 1580}, {"cell line": "KGN (ovary, adherent, top dose 2.56 µM)", "AUC": 0.679, "IC50": 565}, {"cell line": "KINGS-1 (glioma, adherent, top dose 2.56 µM)", "AUC": 0.965, "IC50": "> 2560"}, {"cell line": "KLE (endometrium, adherent, top dose 2.56 µM)", "AUC": 0.934, "IC50": "> 2560"}, {"cell line": "KM12 (large intestine, adherent, top dose 2.56 µM)", "AUC": 0.915, "IC50": "> 2560"}, {"cell line": "KM-H2 (Hodgkin lymphoma, suspension, top dose 2.56 µM)", "AUC": 0.916, "IC50": "> 2560"}, {"cell line": "KMH-2 (thyroid, adherent, top dose 2.56 µM)", "AUC": 0.917, "IC50": "> 2560"}, {"cell line": "KMOE-2 (acute myeloid leukaemia, suspension, top dose 2.56 µM)", "AUC": 0.851, "IC50": 1650}, {"cell line": "KMRC-1 (kidney, adherent, top dose 2.56 µM)", "AUC": 0.987, "IC50": "> 2560"}, {"cell line": "KMRC-20 (kidney, adherent, top dose 2.56 µM)", "AUC": 0.988, "IC50": "> 2560"}, {"cell line": "KMS-11 (myeloma, suspension, top dose 2.56 µM)", "AUC": 0.95, "IC50": "> 2560"}, {"cell line": "KMS-12-BM (myeloma, suspension, top dose 2.56 µM)", "AUC": 0.794, "IC50": 954}, {"cell line": "KNS-42 (glioma, adherent, top dose 2.56 µM)", "AUC": 0.977, "IC50": "> 2560"}, {"cell line": "KNS-81-FD (glioma, adherent, top dose 2.56 µM)", "AUC": 0.974, "IC50": "> 2560"}, {"cell line": "KON (head and neck, adherent, top dose 2.56 µM)", "AUC": 0.986, "IC50": "> 2560"}, {"cell line": "KOPN-8 (B-cell leukaemia, suspension, top dose 2.56 µM)", "AUC": 0.125, "IC50": 13.3}, {"cell line": "KP-1N (pancreas, adherent, top dose 10.24 µM)", "AUC": 0.564, "IC50": 967}, {"cell line": "KP-2 (pancreas, adherent, top dose 2.56 µM)", "AUC": 0.942, "IC50": "> 2560"}, {"cell line": "KP-3 (pancreas, adherent, top dose 2.56 µM)", "AUC": 0.952, "IC50": "> 2560"}, {"cell line": "KP-N-YN (neuroblastoma, adherent, top dose 2.56 µM)", "AUC": 0.956, "IC50": "> 2560"}, {"cell line": "KP-N-YS (neuroblastoma, adherent, top dose 2.56 µM)", "AUC": 0.306, "IC50": 41.9}, {"cell line": "KS-1 (glioma, adherent, top dose 2.56 µM)", "AUC": 0.914, "IC50": "> 2560"}, {"cell line": "KU812 (chronic myeloid leukaemia, suspension, top dose 2.56 µM)", "AUC": 0.91, "IC50": "> 2560"}, {"cell line": "KU-19-19 (bladder, adherent, top dose 2.56 µM)", "AUC": 0.966, "IC50": "> 2560"}, {"cell line": "KURAMOCHI (ovary, adherent, top dose 2.56 µM)", "AUC": 0.927, "IC50": "> 2560"}, {"cell line": "KY821 (leukaemia, suspension, top dose 2.56 µM)", "AUC": 0.942, "IC50": "> 2560"}, {"cell line": "KYAE-1 (oesophagus, suspension, top dose 2.56 µM)", "AUC": 0.915, "IC50": "> 2560"}, {"cell line": "KYM-1 (rhabdomyosarcoma, adherent, top dose 2.56 µM)", "AUC": 0.986, "IC50": "> 2560"}, {"cell line": "KYSE-50 (oesophagus, adherent, top dose 2.56 µM)", "AUC": 0.854, "IC50": 1750}, {"cell line": "KYSE-70 (oesophagus, adherent, top dose 2.56 µM)", "AUC": 0.965, "IC50": "> 2560"}, {"cell line": "KYSE-140 (oesophagus, adherent, top dose 2.56 µM)", "AUC": 0.891, "IC50": "> 2560"}, {"cell line": "KYSE-150 (oesophagus, adherent, top dose 2.56 µM)", "AUC": 0.972, "IC50": "> 2560"}, {"cell line": "KYSE-180 (oesophagus, adherent, top dose 2.56 µM)", "AUC": 0.974, "IC50": "> 2560"}, {"cell line": "KYSE-220 (oesophagus, adherent, top dose 2.56 µM)", "AUC": 0.918, "IC50": "> 2560"}, {"cell line": "KYSE-270 (oesophagus, adherent, top dose 2.56 µM)", "AUC": 0.967, "IC50": "> 2560"}, {"cell line": "KYSE-410 (oesophagus, adherent, top dose 2.56 µM)", "AUC": 0.955, "IC50": "> 2560"}, {"cell line": "KYSE-450 (oesophagus, adherent, top dose 2.56 µM)", "AUC": 0.827, "IC50": 1450}, {"cell line": "KYSE-510 (oesophagus, adherent, top dose 2.56 µM)", "AUC": 0.982, "IC50": "> 2560"}, {"cell line": "KYSE-520 (oesophagus, adherent, top dose 2.56 µM)", "AUC": 0.935, "IC50": "> 2560"}, {"cell line": "L-363 (myeloma, suspension, top dose 2.56 µM)", "AUC": 0.905, "IC50": "> 2560"}, {"cell line": "L-428 (Hodgkin lymphoma, suspension, top dose 2.56 µM)", "AUC": 0.972, "IC50": "> 2560"}, {"cell line": "L-540 (Hodgkin lymphoma, suspension, top dose 2.56 µM)", "AUC": 0.907, "IC50": "> 2560"}, {"cell line": "L-1236 (Hodgkin lymphoma, suspension, top dose 2.56 µM)", "AUC": 0.992, "IC50": "> 2560"}]}]}
